PubChem BioAssay AID256 (DTP/NCI, 2004)
Inconclusive results and toxic doses are left out. The calls were made as follows: active = survival T/C of 150% or more; inactive = T/C below 125% in these data.

System: CD2F1 mice, L1210 leukemia ip, survival T/C
Experiment: NCI In Vivo Anticancer Drug Screen. Data for tumor model L1210 Leukemia (intraperitoneal) in CD2F1 (CDF1) mice
Conditions: endpoint: mean survival time, schedule: Q04DX002 (ip), vehicle: saline with Tween-80, higher = longer survival
Experimental: The antitumor activity of compounds was measured in mice bearing transplantable tumors. Survival or tumor size were measured and the results are expressed as the measurement made in the treated group (T) divided by the measurement made in the vehicle treated control group (C). The tumor model used in this assay is L1210 Leukemia (intraperitoneal) in CD2F1 (CDF1) mice

Measured: T/C

O=C(/C=C/c1ccccc1)Nc1ccc(Cl)cc1
inactive: dose: 100.0 mg/kg/injection 98 % of control | dose: 200.0 mg/kg/injection 98 % of control | dose: 400.0 mg/kg/injection 110 % of control
